# Laboratory results from PubChem BioAssay AID652104 (National Center for Advancing Translational Sciences (NCATS), 2013).
# Among all 410,000 compounds or so, about 7,200 (1.8%) were called active. Inconclusive means that the source gave no clear call. Such entries were picked first, then a sample of the others. Calls come from the whole dose curve; as a rule, active = well fitted activation curve with a large enough effect; inconclusive = small, poorly fitted or top-dose-only effect, or another doubt; inactive = no such curve, though single readings can be large or run the other way. No potency is given beside an inconclusive call; the fits are too rough.
# Experiment: qHTS of TDP-43 Inhibitors; note: nearly all actives have a fitted effect of over 50% in size; for growth rescue (activation): % of control where 0% means no effect
# Conditions: TDP-43 expressing yeast growth rescue, BacTiter-Glo, 24 h; growth rescue (activation): at 46.1 µM (top of the series) unless noted
# Method in brief: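 In this qHTS, compounds that restore growth of yeast expressing TDP-43 appear as activators. Cells (OD600=0.02, galactose medium, raffinose-pregrown) are incubated with compound 24 hr at 30 deg C and growth is quantified by BacTiter-Glo.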
# Potency is the fitted concentration of half-maximal effect; tags give direction and shape of the fitted curve.
SMILES,Potency,growth rescue (activation)
COC(=O)Nc1nc(-c2ccc(F)cc2)c(C)s1,"inconclusive [activator, partial curve]",–
Cc1noc(C)c1C(=O)Nc1ccc(F)c(F)c1,"inconclusive [activator, partial curve]",–
CC(=O)Nc1ccccc1OCCOc1ccc(Br)cc1,"inconclusive [activator, single point]",–
O=C(CC1N=C2c3ccccc3N=C(SCC(=O)Nc3ccccc3F)N2C1=O)NCc1ccc2c(c1)OCO2 (configuration not stated),inactive,–
CCOc1ccc(C(=O)Nc2ccc3nc4c(c(Nc5ccccc5OC)c3c2)CCCC4)cc1,inactive,–
CC(=O)n1nc(-c2ccccc2)cc1-c1ccccc1,active: 12.6 µM,–
CNC(=S)N(Cc1ccco1)Cc1cc2cc(OC)c(OC)cc2[nH]c1=O,inactive,–
O=C(Nc1cccc(NC(=O)c2cccc(F)c2)n1)c1cccc(F)c1,active: 10 µM,–
CC(C)CCn1c(=O)c2sccc2n2c(CCCC(=O)Nc3ccc(C(C)C)cc3)nnc12,inactive,–
CCOC(=O)CC(NS(=O)(=O)c1cc(-c2cc(C)no2)ccc1C)c1ccc(C)cc1 (configuration not stated),"inconclusive [activator, single point]",–
CC(Oc1ccc(Br)cc1)C(=O)Nc1nnc(C2CC2)s1 (configuration not stated),–,inconclusive: 33.6% [activator]
S=C(NCCSCc1ccc(Cl)cc1Cl)Nc1ccccc1,active: 15.8 µM,–
O=S(=O)(c1ccccc1)c1cnc(-c2cccnc2)nc1-c1ccc(Cl)cc1Cl,"inconclusive [activator, single point]",–
COc1ccccc1NC(=O)CSC(N)=O,"inconclusive [activator, partial curve]",–
CC1CCCC(C)N1C(=O)CN1C(=O)C(C)(C)Oc2ccc(C(=O)NC3CCCCC3)cc21 (configuration not stated),–,inconclusive: 34.7% [activator]
CC1=CC(=C(C#N)C#N)C=C(C)N1Cc1ccc(Cl)cc1,inactive,–
Cc1cc2n(n1)C(c1ccc3c(c1)OCO3)Nc1c(C)cccc1-2 (configuration not stated),inactive,–
COc1ccc(CNC(=O)c2ccc3c(c2)CCN3S(=O)(=O)c2ccccc2)cc1,inactive,–
COc1ccc(/C=N\NC(=S)SCN2C(=O)C3CCC(C)(C2=O)C3(C)C)cc1 (configuration not stated),"inconclusive [activator, partial curve]",–
N#CC(C#N)=C1SC(=Nc2ccccc2)C(=Nc2ccccc2)N1c1ccccc1,inactive,–
O=C(NC1CCCCC1)C(=O)c1c[nH]c2ccccc12,"inconclusive [activator, partial curve]",–
CCOC(=O)c1sc2cccc(F)c2c1S(=O)(=O)Nc1ccccc1F,active: 17.8 µM,–
CCN(C(=O)c1cc(S(=O)(=O)N2CCCC2)cn1C)c1ccc(OC)cc1,"inconclusive [activator, partial curve]",–
COc1ccc(NC(=O)c2ccc(-c3c(C)noc3C)c3ccoc23)cc1,"inconclusive [activator, partial curve]",–

SMILES,Potency,growth rescue (activation)
COc1ccc(NC(=O)c2nnn(CC(=O)Nc3cc(C)cc(C)c3)c2N)c(OC)c1,inactive,–
O=C(NCc1ccccn1)c1ccccc1OCc1ccc(Cl)cc1Cl,"inconclusive [activator, single point]",–
Cc1cccc(N2C(=O)c3cccc4cccc(c34)C2=O)c1,"inconclusive [activator, single point]",–
CCn1c(=O)c(C(=O)NCCc2ccccc2)c(O)c2ccccc21,inactive,–
Cc1ccc([N+](=O)[O-])cc1S(=O)(=O)NCC1COc2ccccc2O1 (configuration not stated),"inconclusive [activator, single point]",–
NNc1nc(-c2ccccc2Cl)c2cc(Br)ccc2n1,active: 15.8 µM,–
CNCC(=O)O,"inconclusive [activator, partial curve, poor fit]",–
COc1cc(/C=N/NC(N)=S)ccc1OCc1ccc(C)cc1,"inconclusive [activator, single point]",–
Cc1ccc(S(=O)(=O)N(CC(=O)NCCC2=CCCCC2)Cc2ccccc2F)cc1,"inconclusive [activator, partial curve]",–
COC(=O)c1cccc(NC(=O)CSCc2ccccc2)c1,"inconclusive [activator, partial curve]",–
CCn1c(O)c(C2=c3ccccc3=NC2=O)c2cc(Br)ccc21,"inconclusive [activator, single point]",–
CC(C)(C)n1nnnc1C(c1ccc(F)cc1)N(Cc1ccc(F)cc1)Cc1ccco1 (configuration not stated),"inconclusive [activator, full curve]",–
COc1cccc(C(=O)OCn2nnc3ccccc3c2=O)c1OC,"inconclusive [activator, single point]",–
c1ccc(-n2nnnc2N2CCOCC2)cc1,–,inconclusive: -41.4% [activator]
COC(=O)CN(c1ccccc1F)S(=O)(=O)c1ccccc1,"inconclusive [activator, full curve, poor fit]",–
O=C(c1csc(Nc2cccc3ccccc23)n1)N1CCCC1,"inconclusive [activator, single point]",–
CCOC(=O)CC(NC(=O)CCc1c(C)nc2cc(-c3ccccc3)nn2c1C)c1ccc(C)cc1 (configuration not stated),"inconclusive [activator, single point]",–
N#Cc1ccccc1NC(=O)C(=O)NCC(c1cccnc1)N1CCc2ccccc21 (configuration not stated),inactive,–
CC12CC3CC(C)(C1)CC(C(=O)NC1=NCCS1)(C3)C2,"inconclusive [activator, single point]",–
Cc1ccccc1N1C(=O)C(Cl)=C(N2CCN(c3ccccc3)CC2)C1=O,"inconclusive [activator, single point]",–
Cc1cc(Nc2ccccc2)n(-c2ccc(Br)cc2)n1,"inconclusive [activator, single point]",–
CCOc1cccc(C(=O)Nc2cccc(NC(=O)c3ccco3)c2)c1,"inconclusive [activator, single point]",–
CC(=O)Nc1cccc(C(=O)/C=C/c2ccco2)c1,"inconclusive [activator, single point]",–
Cc1noc2ncnc(Sc3ccccc3Cl)c12,"inconclusive [activator, single point]",–

SMILES,Potency,growth rescue (activation)
CC1=C(C(=O)N(C)Cc2ccccc2)C2(CCC(C)CC2)OC1=O (configuration not stated),"inconclusive [activator, partial curve]",–
Cn1nc(C(=O)NCc2ccccc2)c2ccccc2c1=O,inactive,–
O=C1CCCCC1C(Nc1ccc(Cl)cc1)c1ccccc1 (configuration not stated),"inconclusive [activator, single point]",–
COc1ccccc1-c1csc(C(C)(NC(C)=O)c2ccccc2)n1 (configuration not stated),"inconclusive [activator, partial curve]",–
Cc1ccccc1SCC(=O)Nc1cc(C(F)(F)F)ccc1N1CCOCC1,"inconclusive [activator, single point]",–
COC(=O)C[C@H]1C[C@@H]2c3cc(NC(=O)NC4CCCC4)ccc3O[C@@H]2[C@@H](CO)O1,"inconclusive [activator, partial curve]",–
COC(=O)CSc1nc(C2CC2)cc(C(F)(F)F)c1C#N,"inconclusive [activator, single point]",–
O=C(c1ccc(S(=O)(=O)N2CCCC2)cc1)N1CCCc2ccccc21,inactive,–
Cc1ccc(C(=O)OCC(=O)N2CCC(c3ccccc3)=N2)c(C)c1,inactive,–
COc1cccc(/C=N/n2c(-c3cccs3)n[nH]c2=S)c1,"inconclusive [activator, single point]",–
Cc1cc(C)c(C#N)c(N2CCN(c3ccccc3)CC2)n1,"inconclusive [activator, full curve]",–
C=CCc1ccc(OCCCN2CCCC(C)C2)c(OC)c1 (configuration not stated),"inconclusive [activator, partial curve, poor fit]",–
c1ccc(-c2c(-c3ccccc3)n(Cc3ccco3)c3ncnc(NCCCn4ccnc4)c23)cc1,–,inconclusive: -82.2% [activator]
CCOc1ccc(OC(=O)NC(c2ccccc2)C(Cl)(Cl)Cl)cc1 (configuration not stated),"inconclusive [activator, partial curve, poor fit]",–
CCC(=O)Nc1ccc(Cl)c(NC(=O)c2ccc(Br)o2)c1,"inconclusive [activator, single point]",–
Cn1c(=O)c2c(nc(N3CCOCC3)n2Cc2ccccc2)n(C)c1=O,inactive,–
COC(=O)C1=C(C)OC(N)=C(C#N)C1c1ccccc1 (configuration not stated),"inconclusive [activator, partial curve]",–
CCOC(=O)c1c(C)[nH]c(C)c1S(=O)(=O)N(C)CC(=O)N1CCN(c2cccc(Cl)c2)CC1,inactive,–
CC(=O)c1cc(-c2ccccc2)n(CCC(=O)Nc2nc3c(C)cccc3s2)c1C,inactive,–
Cc1ccc(S(=O)(=O)N2CCN(c3nccnc3C#N)CC2)cc1,"inconclusive [activator, single point]",–
COc1ccc2c(c1OC)C(=O)N1N=C(c3ccc(F)cc3)CC21 (configuration not stated),"inconclusive [activator, single point]",–
CCc1nc2ccc(C(=O)NCCc3ccc(OC)cc3OC)cc2nc1CC,inactive,–
CCc1ccc(Nc2cc(C)nc3ncnn23)cc1,"inconclusive [activator, partial curve]",–
CC1=C(C(=O)Nc2ccccc2)C(c2ccc3c(c2)OCO3)C2=C(CCCC2=O)N1 (configuration not stated),inactive,–
